The results in this text go back to PubChem BioAssay AID1346428 (National Center for Advancing Translational Sciences (NCATS), 2018).

Where “and” joins values, the source holds several entries; their conditions need not be identical. Equal values may be shown once. Screen size: about 48,000 compounds; about 1,200 (2.5%) were called active. Roughly 2% stayed inconclusive and do not appear here.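 Rule for the calls: active = activation of at least 60% and not above a set upper limit (about 1 call in 100 departs from these limits); inconclusive = activation of 40% to 60%, or above that upper limit; inactive = activation under 40%.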 The list shows a part of the results. Some compounds were tested as several samples or in several runs, with calls that do not always agree.

The target in this assay is Probable G-protein coupled receptor 32 (Homo sapiens) (UniProt O75388). Briefly: qHTS for Agonists of Human Resolvin D1 Receptor DRV1. Note: 0% is about no effect. Conditions: CHO-K1 GPR32 beta-arrestin PathHunter luminescence, 90 min; at 76.9 µM; stronger effect = higher value; zero percent set by DMSO-only wells. The method in brief: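 CHO-K1 cells stably expressing ProLink-tagged GPR32 and Enzyme Activator-tagged beta-arrestin were seeded at 2,500 cells/well overnight, exposed to compounds for 90 min at 37 °C, then read by beta-Gal complementation chemiluminescence after 1 h detection reagent.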
Sequence of UniProt O75388 (O75388 whole entry, looked up): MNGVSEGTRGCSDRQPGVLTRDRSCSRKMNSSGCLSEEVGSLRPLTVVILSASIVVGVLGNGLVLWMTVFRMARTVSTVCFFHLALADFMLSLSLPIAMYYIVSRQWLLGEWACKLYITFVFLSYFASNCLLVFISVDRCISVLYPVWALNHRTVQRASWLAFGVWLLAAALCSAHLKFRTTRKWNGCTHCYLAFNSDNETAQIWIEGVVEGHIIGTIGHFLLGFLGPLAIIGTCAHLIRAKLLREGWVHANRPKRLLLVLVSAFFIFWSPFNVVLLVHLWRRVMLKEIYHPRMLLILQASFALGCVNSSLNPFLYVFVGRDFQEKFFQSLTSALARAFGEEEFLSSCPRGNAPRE
Consider `COc1ccc(NC(=O)c2cc(S(=O)(=O)N3CCCCCC3)cn2C)cc1Cl`, for which the activation is inactive: -4.47%.
For `Clc1ccc(N2CCN(c3ncnc4c3cnn4-c3ccccc3)CC2)cc1Cl` the value was inactive: 4.04%; for `Cc1nc2n(c(=O)c1CCN1CCC(c3noc4cc(F)ccc34)CC1)CCCC2`, inactive: 2.19%; for `CCc1ccccc1N(C)C(=O)c1cn(-c2cccc(OC)c2)c(=O)c2ccccc12`, inactive: -21.6%.
Turning to `CNCCC(Oc1ccc(C(F)(F)F)cc1)c1ccccc1` (stereo not drawn), the activation is active: 104% and inactive: -3.61%.
For `CCc1ccc(NC(=O)Cn2nnc(C(=O)NCc3ccc(C)cc3)c2N)cc1` the value was inactive: -1.7%.
For `O=C(Nc1ccc(F)cc1F)C1CCN(S(=O)(=O)c2ccc3[nH]c(=O)ccc3c2)CC1` the value was inactive: 15.6%; for `O=C(CCc1nc2cccnc2n1-c1ccccc1)Nc1ccc(Cl)c(Cl)c1`, inactive: 27.9%.
For `CC1(C(=O)NC2CCCCC2)Cc2ccccc2C(=O)N1Cc1ccccc1Cl` (stereo not drawn) the value was inactive: -14.8%; for `COc1cc(NC(=O)CCc2nc3cccnc3n2Cc2cccs2)cc(OC)c1OC`, inactive: 5.4%; for `CCc1ccc(OCc2nc(-c3ccc(OC)c(OC)c3)no2)c(Br)c1`, inactive: -7.44%.
Turning to `CCOc1ccc(C(=O)NCC(c2ccc3c(c2)OCO3)N2CCOCC2)cc1` (stereo not drawn), the activation was inactive: -6.11%.
Turning to `CN(C)c1ccc(C2C=C(c3ccccc3)Nc3nnnn32)cc1` (stereo not drawn), the activation was inactive: -19.6%.
For `CC(=O)c1ccc(N2C(=O)N(Cc3ccccc3C#N)c3ccccc3S2(=O)=O)cc1` the value was inactive: -6.48%; for `COc1cc(-c2noc(-c3ccc(NCc4ccco4)c([N+](=O)[O-])c3)n2)cc(OC)c1OC`, inactive: -25.7%; for `Cc1oc2ccc(O)c(CN3CCCCC3)c2c1C(=O)Nc1cccc(C(F)(F)F)c1`, active: 106%.
Then `Cc1c(C(=O)Nc2ccc(F)c(Cl)c2)oc2ccc(S(=O)(=O)N(C)C3CCCCC3)cc12`, with inactive: -13.9%; and `Cc1ccc(-n2ncc(C(=O)Nc3ccc4c(c3)OCO4)c2C2CCN(C(=O)OC(C)(C)C)CC2)c(C)c1`, with inactive: -43.9%; and `Cc1cn2c(=O)cc(COc3ccc(NC(=O)c4ccccc4C)cc3)nc2s1`, with inactive: 5.57%.
Then `CCOC(=O)c1nc(Nc2ccccc2OC)c2ccccc2n1`, with inactive: -3.22%.
Consider `CCCOc1ccc(-c2nc(N3CCCCC3)c3ccccc3n2)cc1`, for which the activation was inactive: 5.54%.
For `Cc1nn(C)c2c1c(C(F)(F)F)cc(=O)n2CC(=O)N1CCCCC1C` (stereo not drawn) the value was active: 79.9%; for `CCCCN(CC)C(=O)c1cc2c(=O)n3ccccc3nc2n1C`, inactive: -9.64%.
